For one molecule, binding results are on record in article PMC11546610, “Molecular Modeling and In Vitro Functional Analysis of the RGS12 PDZ Domain Variant Associated with High-Penetrance Familial Bipolar Disorder” (International Journal of Molecular Sciences, 2024).

Results are given in words; binding and its absence hold for the method and conditions named. Some results given as binding are weak or reduced against the parent protein; the word gives no strength.

What all share (test): SPR; Biacore 3000; biotinylated peptides immobilised on streptavidin chips to 350 RU; RGS12 PDZ domain protein as analyte (10 nM to 500 μM; 300 μM in Figure 5D), 10 μL/min; 10 mM HEPES pH 7.4, 250 mM NaCl, 0.05% Nonidet P-40, 50 μM EDTA; mNotch1 peptide surface subtracted; both purified
(In general: In SPR one partner is held on a chip, and binding of the other changes the refractive index at the surface.)

Assay [1] deals with T1, CXCR2 C-terminal peptide, biotin-NH-…-carboxylic acid.
T1 sequence (peptide, biotin on the N-terminus (biotin-NH-); C-terminal carboxylic acid): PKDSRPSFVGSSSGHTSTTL

Assay [2] addresses T2, SAPAP3 mutant (mt) C-terminal peptide, biotin-NH-…-amide (human).
T2 sequence (peptide, biotin on the N-terminus (biotin-NH-); C-terminal amide): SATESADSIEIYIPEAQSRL

The target of assay [3] is T3, SAPAP3 wt C-terminal peptide (aa 960-979), biotin-NH-…-carboxylic acid (human).
T3 sequence (peptide, biotin on the N-terminus (biotin-NH-); C-terminal carboxylic acid): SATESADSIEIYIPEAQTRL

Assay [4] concerns the target T4, mNotch1 C-terminal peptide, biotin-NH-…-carboxylic acid (mouse).
T4 sequence (peptide, biotin on the N-terminus (biotin-NH-); C-terminal carboxylic acid): PSQITHIPEAFK

B1: Recombinant RGS12 PDZ domain protein (Biacore analyte, as in ref. 65) (domain or fragment, UniProt O08774 21-97)
chain: SVEVARGRAGYGFTLSGQAPCVLSCVMRGSPADFVGLRAGDQILAINEINVKKASHEDVVKLIGKCSGVLRMVISEG
For B1, the binding entry in assay [1] is “binds”; in assay [2], “no binding (tested: 300 μM)”; in assay [3], “binds”; in assay [4], “no binding (tested: 500 μM)”.
